# Laboratory results published in PubChem BioAssay (NCATS).
# Values joined by “and” are separate entries in the source; they are usually repeats but may differ in a detail not shown here. Equal entries are not always repeated. This is one part of the list. Further columns of the screen follow, without active or inactive calls. For some assays here: Compounds called inactive in the main read-out are mostly missing here. For some assays here: The note in brackets gives the kind of curve behind each potency; many fits are weak.
# Experiments:
# [1] = qHTS Assay for Lipid Storage Modulators (AID 1519); settings: Drosophila S3 cells, BODIPY lipid droplet/cell ratio, laser cytometry, cells loaded with oleic acid
# Procedure, shortened: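 Cells seeded at 5,000 per well were treated with compounds over a concentration series and loaded with oleic acid (400 uM, as added). Lipid droplet fluorescence (488 nm excitation, 500-530 nm channel) was read by laser-scanning cytometry and normalized to 20 uM Triacsin C.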
# [2] = qHTS Assay for Modulators of Human Peripheral Myelin Protein 22 (PMP22) Expression/Activity (AID 1967); settings: Cell-based PMP22 reporter, dual-color luciferase ratio
# Procedure, shortened: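 Quantitative HTS in a mouse Schwann cell line expressing dual click beetle luciferases: Pmp22 promoter (green) and control EF-alpha promoter (red). After 24h treatment, corrected green/red signal ratio gave %Activity relative to untreated cells.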
# [3] = qHTS Validation Assay to Find Inhibitors of Chronic Active B-Cell Receptor Signaling (AID 485345); settings: ABC-DLBCL cells, chronic BCR signaling reporter
# Procedure, shortened: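 TMD8 ABC-DLBCL cells with dox-inducible green luciferase–IκBα fusion and red native luciferase; compounds 46 uM–3 nM, 4 h at 37C with doxycycline in 0.5% FBS IMDM. Green/red ratio normalized to basal and 10 uM MG-132.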
# [4] = qHTS Validation Assay for Iinhibitors of HIV-1 Budding by Blocking the Interaction of PTAP/TSG101 (AID 485342); settings: TSG101-PTAP binding, fluorescence polarization, 4-point titration; measured here: FITC channel readout
# Procedure, shortened: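 Fluorescence anisotropy measured PTAP-Tsg101 interaction. Final concentrations were 10 uM protein domain and 50 nM labeled peptide, equilibrated 20 min at room temperature.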
# [5] = S16 Schwann cell PMP22 intronic element beta-lactamase assay (AID 624044); settings: S16 rat Schwann cells, PMP22 element beta-lactamase FRET, 24 h; measured here: 460 nm blue channel; further: nearly all actives have a fitted effect of over 15% in size
# Procedure, shortened: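 Rat S16 Schwann cells with beta-Lac driven by a PMP22 intronic element, compound-treated 24 h at 37 °C. LiveBLAzer FRET B/G read: 460 nm normalized to potassium clavulanate vs DMSO; 535 nm FRET as viability; concentration-effect curves classified.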
# [6] = qHTS Assay for Inhibitors of PDE-IV (AID 607); settings: HEK293 ACTOne CNG channel cells, membrane potential fluorescence; measured here: parental cell counter-screen;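 further: parental cells stimulated with forskolin 10 µM plus RO 20-1724 100 µM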
# Procedure, shortened: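 HEK293 ACTOne cells with CNG channel (1000/well), endogenous PDE4; membrane potential dye, compounds up to 22.9 uM final. Fluorescence Ex 535/Em 590; RO 20-1724 (100 uM final) as reference.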
# [7] = Nrf2 qHTS screen for inhibitors: Validation (AID 493153); settings: A549 ARE-Fluc reporter, 18-24 h; AC50: CellTiter-Fluor fluorescence read, measured here: cytotoxicity CellTiter-Fluor AC50; viability change: measured here: cytotoxicity max response
# Procedure, shortened: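 Dose-response validation uses reporter A549 cells with firefly luciferase under an antioxidant response element. Compounds stay on cells 18-24 h at 37°C, and luminescence indicates Nrf2-driven transcription.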
# [8] = measured here: cell count channel max response
# [9] = measured here: lipid (BODIPY) channel AC50
# [10] = measured here: lipid channel max response
# [11] = measured here: red reporter channel AC50, EF-alpha promoter control reporter in MSC80 mouse Schwann cells
# [12] = measured here: CBR control luciferase (viability counter)
# [13] = measured here: cell number channel AC50
# [14] = measured here: green reporter channel AC50, mouse Pmp22 promoter in mouse Schwann cells
# Tags describe the fitted curve by direction and shape.
smiles,measurement,setting,value
C[C@]12C=CC(=O)C=C1CC[C@H]1[C@@H]3C[C@@H](O)[C@](O)(C(=O)CO)[C@@]3(C)C[C@H](O)[C@@]12F,max response,[1]; [8],18%
same,AC50,[1]; [9],"15.8 µM [falling, partial curve, poor fit]"
same,max response,[1]; [10],15.8%
same,AC50,[2]; [11],"75.7 µM [falling, single point]"
same,AC50,[3]; [12],"0.0146 µM [rising, full curve]"
N#C/C(=C\c1ccc(O)c(O)c1)C(=O)Nc1ccccc1,max response,[1]; [8],31.4%
same,AC50,[1]; [13],"1.78 µM [rising, full curve, poor fit]"
same,max response,[1]; [10],-4.17%
same,AC50,[2]; [11],"47.8 µM [falling, partial curve]"
same,AC50,[3]; measured here: CBG/CBR ratio read-out,"20.6 µM [falling, partial curve]"
same,AC50,[3]; [12],"8.2 µM [falling, partial curve]"
Cc1ccc2c(c1)C(N1CCN(C)CC1)=Nc1cccnc1N2,max response,[1]; [8],-8.85%
same,AC50,[1]; [13],"3.55 µM [falling, full curve, poor fit]"
same,max response,[1]; [10],-7.41%
same,AC50,[4],"56.2 µM [falling, partial curve]"
COc1ccc(CCN(C)CCCC(C#N)(c2cc(OC)c(OC)c(OC)c2)C(C)C)cc1OC (stereo not given),max response,[1]; [8],58%
same,AC50,[1]; [9],"15.8 µM [falling, single point]"
same,max response,[1]; [10],57.1%
same,AC50,[2]; [14],"84.9 µM [falling, single point]"
same,AC50,[2]; [11],"84.9 µM [falling, single point]"
same,AC50,[5],"25.1 µM [falling, partial curve, poor fit]"
CC(C)C[C@H](NC(=O)[C@H](O)[C@H](N)Cc1ccccc1)C(=O)O,max response,[1]; [8],18%
same,AC50,[1]; [9],"1.26 µM [falling, full curve, poor fit]"
same,max response,[1]; [10],10.9%
same,AC50,[2]; [11],"95.3 µM [falling, single point]"
c1ccc(C2CN3CCSC3=N2)cc1 (stereo not given),max response,[1]; [8],30.5%
same,AC50,[1]; [13],"0.0251 µM [falling, full curve, poor fit]"
same,max response,[1]; [10],28.7%
same,AC50,[2]; [14],"30.1 µM [rising, single point]"
same,AC50,[2]; [11],"30.1 µM [rising, single point]"
CCOC(=O)C1=C(C)NC(C)=C(C(=O)OC)C1c1cccc([N+](=O)[O-])c1 (stereo not given),max response,[1]; [8],20.8%
same,AC50,[1]; [9],"3.98 µM [rising, partial curve, poor fit]"
same,max response,[1]; [10],30.6%
same,AC50,[2]; [14],"95.3 µM [falling, single point]"
same,AC50,[2]; [11],"84.9 µM [falling, partial curve, poor fit]"
CC1C(=O)N(C)C(=O)c2nc[nH]c21 (stereo not given),max response,[1]; [8],-39.3%
same,AC50,[1]; [13],"1.58 µM [falling, full curve, poor fit]"
same,max response,[1]; [10],-41.7%
same,AC50,[3]; [12],"23.1 µM [falling, single point]"
O=C(O)CCc1nc(-c2ccccc2)c(-c2ccccc2)o1,AC50,[6],"10 µM [rising, partial curve] and 7.94 µM [rising, partial curve]"
same,max response,[1]; [8],24.4% and 58.5%
same,AC50,[1]; [9],"22.4 µM [rising, partial curve, poor fit]"
same,max response,[1]; [10],46% and 60%
same,AC50,[2]; [11],"84.9 µM [falling, single point]"
O=C(OCCN1CCCCC1)c1c[nH]c2ccccc12,max response,[1]; [8],29.5%
same,AC50,[1]; [9],"14.1 µM [rising, partial curve, poor fit]"
same,max response,[1]; [10],40.3%
same,AC50,[2]; [11],"4.26 µM [rising, full curve]"
COc1ccccc1N1CCN(CCN(C(=O)c2ccc(F)cc2)c2ccccn2)CC1,max response,[1]; [8],-22.6%
same,AC50,[1]; [13],"22.4 µM [falling, partial curve, poor fit]"
same,max response,[1]; [10],-21.9%
same,AC50,[2]; [11],"84.9 µM [falling, single point]"
same,viability change,[7],-10.3%
NNc1nncc2ccccc12,max response,[1]; [8],3.18% and 21.8% and 82.3%
same,AC50,[1]; [9],"355 nM [rising, full curve, poor fit] and 2.82 µM [rising, partial curve]"
same,max response,[1]; [10],2.61% and 38.1% and 85.5%
same,AC50,[2]; [11],"47.8 µM [falling, partial curve]"
O=C(C1CCCCC1)N1CC(=O)N2CCc3ccccc3C2C1 (stereo not given),max response,[1]; [8],18.6%
same,AC50,[1]; [9],"44.7 µM [rising, partial curve, poor fit]"
same,max response,[1]; [10],38.6%
same,viability change,[7],-0.919%
O=C(O)CCCCCCCC(=O)O,max response,[1]; [8],22.9% and 54.2%
same,AC50,[1]; [9],"28.2 µM [rising, single point]"
same,max response,[1]; [10],35.8% and 53.1%
same,AC50,[2]; [11],"95.3 µM [falling, single point]"
